According to PubChem BioAssay AID2676 (National Center for Advancing Translational Sciences (NCATS), 2010):
Out of some 370,000 compounds screened, about 1,100 (0.3%) were called active. The shares of active, inactive and inconclusive entries below differ from those in the screen. Calls follow the shape of the dose curve; as a rule, active = well fitted activation curve with a large enough effect; inconclusive = small, poorly fitted or top-dose-only effect; inactive = flat fitted curve, though single readings scatter. Potencies beside an inconclusive call are fits to weak or partial responses and may not hold up.

target: Relaxin receptor 1 (Homo sapiens) (UniProt Q9HBX9); test: qHTS Assay for Agonists of the Relaxin Receptor RXFP1; settings: HEK293T-RXFP1 cAMP TR-FRET, 30 min; series mostly up to 57.5 µM; activation: at the top concentration; also: nearly all actives have a fitted effect of over 60% in size
UniProt Q9HBX9, sequence (Q9HBX9 whole entry, looked up): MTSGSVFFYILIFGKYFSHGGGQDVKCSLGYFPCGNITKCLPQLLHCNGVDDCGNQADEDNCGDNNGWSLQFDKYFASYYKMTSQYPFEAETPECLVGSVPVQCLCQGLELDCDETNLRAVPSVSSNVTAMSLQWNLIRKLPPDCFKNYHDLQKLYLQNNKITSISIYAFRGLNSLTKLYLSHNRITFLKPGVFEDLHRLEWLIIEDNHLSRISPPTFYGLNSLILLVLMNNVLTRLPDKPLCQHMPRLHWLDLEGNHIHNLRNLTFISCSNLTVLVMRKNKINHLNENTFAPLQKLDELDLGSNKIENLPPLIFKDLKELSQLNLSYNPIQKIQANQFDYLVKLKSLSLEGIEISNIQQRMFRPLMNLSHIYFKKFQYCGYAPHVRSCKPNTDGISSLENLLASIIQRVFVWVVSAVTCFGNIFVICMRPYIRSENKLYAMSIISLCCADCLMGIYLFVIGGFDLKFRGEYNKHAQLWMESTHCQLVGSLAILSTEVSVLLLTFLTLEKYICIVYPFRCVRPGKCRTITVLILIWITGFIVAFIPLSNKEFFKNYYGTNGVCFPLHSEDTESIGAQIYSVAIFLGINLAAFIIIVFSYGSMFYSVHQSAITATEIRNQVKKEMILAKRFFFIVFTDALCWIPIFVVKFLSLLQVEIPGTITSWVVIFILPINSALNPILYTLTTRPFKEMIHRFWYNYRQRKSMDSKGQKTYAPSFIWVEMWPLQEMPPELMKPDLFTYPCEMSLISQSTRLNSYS
Summary of the method: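 Agonist response is measured as cAMP accumulation in an RXFP1-transfected HEK293T line under PDE4 inhibition. Values are scaled between buffer-only and 29 nM porcine relaxin, and EC50s come from standard Hill equation fits.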
% is scaled to controls: 0 for no effect and ±100 for the full control effect; potency is read from the fitted curve at half-maximal effect; tags tell the direction and shape of the fitted curve.

Potency, active:
N#Cc1c2n(c3c(N)ncnc13)CCCCC2 17.8 µM
CC(C)OC(=O)CNc1n[nH]c(=S)[nH]c1=O 5.01 µM
CCN(CC)S(=O)(=O)c1ccc2c(c1)N(CC(=O)NCc1ccccn1)C(=O)CO2 25.1 µM
Cc1nnc(Nc2ccc(S(N)(=O)=O)cc2)c2ccccc12 25.1 µM
Cc1nn(CCCC(=O)NCc2ccc(F)cc2)c(=O)c2nccn12 28.2 µM
Cn1nc(-c2ccc(Cl)cc2)nc2c(=O)n(C)c(=O)nc1-2 4.47 µM

Potency, inconclusive:
Cc1cccc2c(=O)cc(CSCC(=O)Nc3ccc(Cl)cc3)[nH]c12 35.5 µM [activator, single point]
CN(Cc1ccco1)S(=O)(=O)c1cc(F)ccc1CN1C(=O)c2cccnc2C1=O 28.2 µM [activator, partial curve]
Cc1cccc(N(C(=O)c2snc(C(N)=O)c2N)C(C(=O)NCC2CCCO2)c2ccc(N(C)C)cc2)c1 (configuration not stated) 39.8 µM [activator, single point]
COc1cc2cc(C(=O)N3CCc4ccccc4C3)[nH]c2cc1OC 28.2 µM [activator, single point]
CC1CN(S(=O)(=O)c2ccc(C(=O)Nc3nc(-c4cc5ccccc5o4)cs3)cc2)CC(C)O1 (configuration not stated) 35.5 µM [activator, single point]
Cc1cc(C)c2cc(C#N)c(SCC(=O)Nc3cc(C)on3)nc2c1 31.6 µM [activator, single point]
CSc1nc(=S)c2[nH]c(=S)[nH]c2[nH]1 20 µM [activator, partial curve]
O=C(CCn1c(=S)[nH]c2cc3c(cc2c1=O)OCO3)NCc1ccc(Cl)cc1 39.8 µM [activator, single point]
Cc1ccc(S(=O)(=O)C(C)C(=O)NCCS(=O)(=O)c2ccc(Cl)cc2)cc1 (configuration not stated) 28.2 µM [activator, single point]
COc1cccc(-c2ccc(C#N)c(SCC(=O)NCCc3ccccc3)n2)c1 8.91 µM [activator, partial curve]
COCCn1c(SCC(=O)Nc2ccc(C)cc2)nc2c(oc3ccccc32)c1=O 39.8 µM [activator, single point]
COc1cc2nc(NCCC(C)C)n3nc(-c4ccccc4)nc3c2cc1OC 35.5 µM [activator, single point]
COc1ccc(C(=O)N2CCN(Cc3cc(=O)n4nc(-c5ccccc5C)sc4n3)CC2)cc1OC 39.8 µM [activator, single point]
CC(=O)c1ccc(NC(=O)c2ccc(-c3ccc(Cl)cc3)o2)cc1 25.1 µM [activator, partial curve]
CCOc1ccc(C(=O)COC(=O)c2ccc(-n3cnnn3)cc2)cc1 39.8 µM [activator, single point]
Cc1c(C(=O)Nc2ccccc2F)sc2ncnc(N(C)C3CCCCC3)c12 22.4 µM [activator, partial curve]
Cc1cc(NC(=O)CSc2nc3c(cc2C#N)CCCCC3)no1 39.8 µM [activator, single point]
Cc1nc(Nc2ccccc2)c2oc3ccc(Cl)cc3c2n1 35.5 µM [activator, single point]
CC1CCCC(C)N1CCNC(=O)CCc1nnc2n(Cc3ccccc3)c(=O)c3ccccc3n12 (configuration not stated) 25.1 µM [activator, partial curve]
CCOC(=O)C1CCCN(C(=O)c2csc(-c3ccc4c(c3)CCO4)n2)C1 (configuration not stated) 28.2 µM [activator, partial curve]
Cc1cc(=O)n2nc(N(C)CC(=O)NCc3cccc(Br)c3)sc2n1 25.1 µM [activator, partial curve]
CCOc1ncccc1C(=O)Nc1ccc2nc(C)sc2c1 39.8 µM [activator, single point]
CC(=O)c1sc(NC(=O)c2ccc(F)cc2)nc1-c1ccccc1 35.5 µM [activator, single point]
O=C(C1=C(O)C(=O)N(CC2CCCO2)C1c1cccnc1)c1ccco1 (configuration not stated) 28.2 µM [activator, partial curve]
CCOc1ccccc1NC(=O)CCc1c(C)nc2c(c(C)nn2-c2ccccc2)c1C 39.8 µM [activator, single point]
O=C(NCc1ccc(F)cc1)c1ccc(Cn2c(SCc3ccc(F)cc3)nc3cccnc32)cc1 39.8 µM [activator, single point]
COc1cccc(NC(=O)Cn2cc(C(=O)c3ccc(F)cc3)c(=O)c3cc(OC)ccc32)c1 35.5 µM [activator, single point]
Cc1cc(-c2nc3ncccc3o2)ccc1NC(=O)COc1ccccc1C 39.8 µM [activator, single point]
COc1ccc(-c2cc(C(F)(F)F)nc(SCCC(=O)Nc3ccccc3F)n2)cc1 35.5 µM [activator, single point]
COc1ccc(S(=O)(=O)c2cn(CC(=O)Nc3cc(C)ccc3C)c3ccccc3c2=O)cc1 22.4 µM [activator, partial curve]
Cc1nc(SCc2ccc(F)cc2)c2oc3ccccc3c2n1 35.5 µM [activator, single point]
N#Cc1c(-c2ccccc2)nc(SCC(=O)Nc2ccc(OC(F)(F)Cl)cc2)[nH]c1=O 25.1 µM [activator, partial curve]
O=C(Nc1ccccc1Cl)C1CCN(c2nc3ccccc3nc2C(F)(F)F)CC1 25.1 µM [activator, single point]
Cc1ccc(S(=O)(=O)c2nnn3c2nc(NC(C)c2ccccc2)c2sccc23)cc1 (configuration not stated) 39.8 µM [activator, single point]
CCCc1nc(SCC(=O)NCC2CCCO2)c2c(=O)n(C)c(=O)n(C)c2n1 (configuration not stated) 7.08 µM [activator, partial curve]
CN(Cc1ccc(F)cc1)S(=O)(=O)c1nnc(NC(=O)c2ccccc2Br)s1 31.6 µM [activator, partial curve]
CC(=O)c1c(C)[nH]c(C(=O)Nc2ccc(Cl)cc2F)c1C 31.6 µM [activator, single point]
CCOc1cc(CNC(=O)c2ccc(Cn3c(=O)c4cccn4c4cccnc43)cc2)ccc1OC 35.5 µM [activator, single point]
Cc1cc2ccccc2n1CCNC(=O)c1cc(C(F)(F)F)cc(C(F)(F)F)c1 35.5 µM [activator, single point]
COCCn1c(SCC(=O)c2ccc(C)cc2C)nc2cc(C(=O)NC3CCCC3)ccc2c1=O 4.47 µM [activator, single point]
CCn1c(SCC(=O)Nc2cccc(F)c2)nnc1-c1cc2cc(Br)ccc2o1 35.5 µM [activator, single point]

activation, inactive:
Cc1ccc(NC(=O)CSCC(=O)Nc2cccc(S(=O)(=O)N3CCCCCC3)c2)cc1 -0.278%
C=CCNc1oc(-c2ccc(OCC)cc2)nc1C#N 1.17%
CCOC(=O)/C(=C\c1cccnc1)C(=O)c1cc(C(C)=O)c(Nc2ccccc2)s1 -1.63%
COc1ccc(-c2cc(OC(=O)c3ccccc3)c3c(C)oc(C)c3c(=O)c2)cc1OC -0.454%
COc1cccc(NC(CNS(=O)(=O)c2ccc(Cl)cc2)c2ccccc2)c1 (configuration not stated) 0.617%
Cc1ccc(C)c(N2C(=O)N(C)c3ccccc3S2(=O)=O)c1 0.13%
NS(=O)(=O)c1ccc(CCNc2nccn(-c3cccc(C(F)(F)F)c3)c2=O)cc1 -1.37%
Cc1ccc(S(=O)(=O)Nc2cccc3ncccc23)s1 0.189%
COc1ccc(N2C(=O)CN=C2Nc2nc(C)cc(C)n2)cc1OC -0.187%
NC(=S)n1[nH]c(-c2ccc([N+](=O)[O-])cc2)c(N=Nc2cccc([N+](=O)[O-])c2)c1=O -1.5%
